Data taken from PubChem BioAssay AID686978 (National Center for Advancing Translational Sciences (NCATS), 2013).
Several values for one entry are separate records, joined by “and”; a condition that tells them apart may be missing. Identical values can stand only once. Out of some 420,000 compounds screened, about 64,000 (15%) were called active. The inconclusive results got no clear call from the source; some entries with a clear call stand among them for comparison. Calls follow the shape of the dose curve; as a rule, active = well fitted inhibition curve with a large enough effect; inconclusive = small, poorly fitted or top-dose-only effect; inactive = flat fitted curve, though single readings scatter. A potency beside an inconclusive call is a rough fit, not a confirmed value.
% is scaled to controls: 0 for no effect and ±100 for the full control effect; potency is read from the fitted curve at half-maximal effect; tags tell the direction and shape of the fitted curve.

Assay: qHTS for Inhibitors of human tyrosyl-DNA phosphodiesterase 1 (TDP1): qHTS in cells in absence of CPT; also: nearly all actives have a fitted effect of over 55% in size
Details: DT40 Tdp1-/- hTDP1 cells, no CPT, ATP luminescence, 48 h; activity change, negative = growth inhibition: at 46.2 µM (top of the series) unless noted
Method in brief: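 No-CPT arm: Tdp1-/-;hTDP1 DT40 cells (400/well) plus compounds, incubated ≥48 hr at 37 °C. Readout CellTiter-Glo luminescence.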
For COc1ccc(/C(C)=N/Nc2nc3ccccc3nc2C)cc1, the Potency was active: 23.1 µM.
In the case of O=C(Nc1c(O)c2ccccc2oc1=O)c1cccc(F)c1, the “activity change, negative = growth inhibition” value is reported as inactive: 7.08%.
With CC(=O)c1cccc(-c2ccnc3c2CC(C(=O)Nc2ccc(Cl)cc2)O3)c1 (configuration not stated) the Potency was active: 20.6 µM.
In the case of CC(C(=O)Nc1sc2c(c1C(=O)NCC1CCCO1)CCC2)N1C(=O)c2ccccc2C1=O (configuration not stated), the “activity change, negative = growth inhibition” value is reported as inactive: -4.04%.
In the case of COc1ccc(NC(=O)CN2C(=O)NC3(CCCCCC3)C2=O)cc1Cl, the Potency is reported as inconclusive: 16.4 µM [inhibitor, partial curve, poor fit].
For COc1cc(NC(=O)NCCN2CCN(c3ccc(Cl)cc3)CC2)ccc1C, the Potency was inconclusive: 16.4 µM [inhibitor, single point].
In the case of C[C@H](CO)N1C[C@H](C)[C@@H](CN(C)S(=O)(=O)c2ccc(F)cc2)Oc2c(NC(=O)c3ccncc3)cccc2C1=O, the “activity change, negative = growth inhibition” value is reported as inactive: 2.45%.
In the case of CC1CC(C)CN(C(=O)COC(=O)CCc2nc3ccccc3c(=O)[nH]2)C1 (configuration not stated), the “activity change, negative = growth inhibition” value is reported as inactive: -0.432%.
For COc1cc2c(C(=O)NCCCN3CC(C)CC(C)C3)cn(CC(C)C)c(=O)c2cc1OC (configuration not stated), the Potency was inconclusive: 20.6 µM [inhibitor, single point].
With CCc1cc2c(SCc3ccc(C(=O)OC)o3)ncnc2s1 the “activity change, negative = growth inhibition” value was inactive: -17%.
With Nc1nc2ccccc2cc1C(=O)NCc1ccc(-c2ccccc2)cc1 the Potency was active: 0.164 µM.
With COc1cc(Cl)c(C)cc1NC(=O)c1ccc(CN2C(=O)CCn3nc(C)cc32)cc1 the “activity change, negative = growth inhibition” value was inactive: -20.9%.
With Cc1ccc(S(=O)(=O)CCC(=O)Nc2sccc2C(N)=O)cc1 the activity change, negative = growth inhibition was inconclusive: -30.1% [inhibitor].
With CCOC(=O)C(C)Oc1ccc(OCc2ccccc2)cc1 (configuration not stated) the “activity change, negative = growth inhibition” value was inactive: -0.79%.
For O=C(Cc1c(F)cccc1Cl)Nc1cccc(S(=O)(=O)NC2=NCCCCC2)c1, the “activity change, negative = growth inhibition” value was inactive: -14.4%.
For COc1ccc2c(c1)C1NC(=S)NC(C)(O2)C1C(=O)Nc1ccc(C)cc1C (configuration not stated), the Potency was inconclusive: 32.6 µM [inhibitor, partial curve, poor fit].
For COc1ccc(C(C(=O)Nc2c(C)cccc2C)n2c(=O)c(-c3ccccc3)nc3ccccc32)cc1 (configuration not stated), the Potency was inconclusive: 29.1 µM [inhibitor, single point].
With CCOC(=O)c1cc(CC)sc1NC(=O)COC(=O)c1cc[n+]([O-])cc1 the “activity change, negative = growth inhibition” value was inactive: 6.71%.
For CN(C(=O)c1cccc(NC(=O)Cc2ccc(NC(=O)C3CCN(C(=O)C4CCCCC4)CC3)cc2)c1)C1CCCCC1, the Potency was inconclusive: 25.9 µM [inhibitor, single point].
For COc1ccc(NC(=S)Nc2ccc3nc(C)c(C)nc3c2)cc1, the “activity change, negative = growth inhibition” value was inactive: -25%.
With CCOC(=O)c1[nH]c(C)c(CCC(=O)NCc2cccc(C)c2)c1C the Potency was inconclusive: 23.1 µM [inhibitor, single point].
In the case of CCOC(=O)c1c(C)[nH]c(C)c1S(=O)(=O)N1CCCC(C(=O)Nc2ccc(C)c(N(C)C)c2)C1 (configuration not stated), the Potency is reported as inconclusive: 29.1 µM [inhibitor, single point].
In the case of CC(=O)Nc1ccc(S(=O)(=O)N2CCC(NC(=O)c3ccccc3)CC2)cc1, the “activity change, negative = growth inhibition” value is reported as inactive: -9.1%.
In the case of CC1CCCCN1CC(O)COCCC12CC3CC(CC(C3)C1)C2 (configuration not stated), the Potency is reported as active: 18.4 µM.
In the case of CCC(=O)Nc1ccccc1-c1nnn(CC(=O)N2c3ccccc3CC2C)n1 (configuration not stated), the “activity change, negative = growth inhibition” value is reported as inactive: -22.3%.
In the case of CCOC(=O)c1c(C)[nH]c(C(=O)CN(C)CC(=O)Nc2ccccc2Cl)c1C, the Potency is reported as active: 20.6 µM.
In the case of O=C(NNC(=O)c1nc(Cl)ccc1Cl)c1ccc(F)cc1, the “activity change, negative = growth inhibition” value is reported as inactive: -27.7%.
With Cc1[nH]c2ccccc2c1C(=O)C(=O)N1CCCc2ccccc21 the Potency was inconclusive: 29.1 µM [inhibitor, single point].
In the case of CCCCOC(=O)c1ccc(NC(=O)Cc2coc3c(C)c(C)ccc23)cc1, the Potency is reported as inconclusive: 13 µM [inhibitor, partial curve, poor fit].
For C[C@@H]1CN([C@H](C)CO)S(=O)(=O)c2ccc(-c3ccc(C#N)cc3)cc2O[C@H]1CN(C)C(=O)Nc1cc(F)ccc1F, the Potency was active: 2.31 µM.
In the case of O=C(CSCc1nc2ccccc2[nH]1)Nc1ccc(Oc2ccccc2)cc1, the Potency is reported as inconclusive: 16.4 µM [inhibitor, partial curve].
In the case of CCC1(C)N=C(N)Nc2nc3cc(C)c(C)cc3n21 (configuration not stated), the Potency is reported as active: 9.2 µM.
For O=C(c1ccc(Cl)c(S(=O)(=O)N2CCOCC2)c1)N1CCN(c2ccccc2F)CC1, the Potency was inconclusive: 16.4 µM [inhibitor, single point].
In the case of COc1cccc(C(O)c2nc(-c3cc4ccccc4o3)cs2)c1 (configuration not stated), the Potency is reported as inconclusive: 29.1 µM [inhibitor, single point].
For CCNC(=S)NNC(=O)c1ccc(S(=O)(=O)NCc2ccco2)cc1, the “activity change, negative = growth inhibition” value was inactive: -25.9%.
For COC(=O)[C@]1(Sc2ccc(C)cc2)CC(=O)N[C@@H]1c1ccccc1, the Potency was inconclusive: 14.6 µM [inhibitor, single point].
With COC(=O)c1ccccc1NC(=O)C1(c2cccs2)CCOCC1 the Potency was active: 20.6 µM.
In the case of COc1ccc(C2NC(=O)NC(C)=C2C(=O)OCc2ccc3c(c2)OCO3)cc1OC (configuration not stated), the Potency is reported as inconclusive: 22.4 µM [inhibitor, single point].
In the case of O=[N+]([O-])c1ccc(N2CCc3ccccc3C2)nc1, the Potency is reported as inconclusive: 23.1 µM [inhibitor, single point].
In the case of CCCC(=O)N(CCN1CCOCC1)c1nc2ccc(OCC)cc2s1, the “activity change, negative = growth inhibition” value is reported as inactive: -20%.
For CCCCCCN1C[C@@H](n2cc(C3CC3)nn2)[C@H](O)C[C@@H]1c1ccc(Cl)cc1, the Potency was inconclusive: 29.1 µM [inhibitor, single point].
In the case of Cc1cccc(CNC(=O)CN2C(=O)C3CCCCN3c3ccc(C(=O)N4CCCC4)cc32)c1 (configuration not stated), the Potency is reported as inconclusive: 14.6 µM [inhibitor, partial curve].
For COC(=O)c1cccc(C#CC(NP(=O)(c2ccccc2)c2ccccc2)c2ccccc2)c1 (configuration not stated), the Potency was inconclusive: 23.1 µM [inhibitor, partial curve, poor fit].
For COc1ccc(Cl)cc1N(CC(=O)N(C)C)S(=O)(=O)c1ccc(C)c([N+](=O)[O-])c1, the Potency was active: 20.6 µM.
In the case of CCOC(=O)c1c(C)oc2c1c(C=NCCC(=O)O)c(O)c1ccccc12, the “activity change, negative = growth inhibition” value is reported as inactive: -20.9%.
For Cc1cc(Sc2nc(NC(C)C)nc(NC(C)C)n2)nc(Cl)n1, the activity change, negative = growth inhibition was inconclusive: -7.01% [inhibitor].
In the case of CC[C@]1(c2ccccc2OC)C(=O)N(C(=O)OC)N1C(=O)OC, the Potency is reported as inconclusive: 32.6 µM [inhibitor, single point].
With CS(=O)(=O)N1CCC2(CC1)CN(c1ccc(-c3ccccc3)cc1)C2 the Potency was inconclusive: 5.8 µM [inhibitor, full curve].
For O=C(CNC(=O)C1COc2ccccc2O1)N/N=C/c1ccc(O)cc1O (configuration not stated), the Potency was active: 6.51 µM.
With O=C(Nc1ccc([N+](=O)[O-])cc1)Nc1nc(-c2ccc(Cl)s2)cs1 the Potency was active: 3.66 µM.
For COc1ccc(S(=O)(=O)N2CCOCC2)cc1NC(=O)[C@@H]1CCCN1C(=O)c1cccs1, the “activity change, negative = growth inhibition” value was inactive: -13.5%.
In the case of Cc1ccc(C(=O)N2CCN(c3ccc(F)cc3)CC2)cc1NC(=O)c1nsc2ccccc12, the Potency is reported as active: 20.6 µM.
For CCCOC1CCCN(Cc2nc(-c3ccc(C(=O)OC)cc3)no2)C1 (configuration not stated), the Potency was inconclusive: 29.1 µM [inhibitor, single point].
For Cc1ccccc1OCCC(=O)OCC(=O)c1c(N)n(CC(C)C)c(=O)n(C)c1=O, the Potency was inconclusive: 29.1 µM [inhibitor, single point].
In the case of CN1C(=O)/C(=N/OC(=O)c2ccccc2)c2ccccc21, the Potency is reported as active: 11.6 µM.
For Cc1ccc(-c2nnc(Nc3ccc(Cl)c(Cl)c3)c3ccccc23)cc1S(=O)(=O)N(C)C, the Potency was inconclusive: 6.51 µM [inhibitor, full curve].
For C/C=C/c1ccc(OCCCCN2CC(C)CC(C)C2)c(OC)c1 (configuration not stated), the Potency was inconclusive: 23.1 µM [inhibitor, single point].
In the case of CC(=N\NC(=O)c1ccccc1)/C(=N/O)C(=O)Nc1ccccc1, the “activity change, negative = growth inhibition” value is reported as inactive: -7.85%.
For Cc1ccc(O)c(/C=N/NC(=O)COc2ccc3c(C)cc(=O)oc3c2)c1, the Potency was active: 16.4 µM.
In the case of COc1cc(NS(=O)(=O)c2ccc(NC(=S)NC(=O)/C=C/c3ccc(OC)c(OC)c3)cc2)ncn1, the Potency is reported as inconclusive: 29.1 µM [inhibitor, single point].
With OC(c1cc(Cl)cc(Cl)c1)c1ncc(-c2cccc(F)c2)[nH]1 (configuration not stated) the Potency was active: 16.4 µM.
With O=C(Nc1ccccc1C(=O)NCCCN1CCOCC1)c1ccc(Cl)cc1 the Potency was inconclusive: 23.1 µM [inhibitor, single point].
In the case of COc1ccc(N(CC(=O)NC2CCCCCC2)S(=O)(=O)c2ccccc2)cc1Cl, the Potency is reported as inconclusive: 29.1 µM [inhibitor, single point].
In the case of Cc1ccc(SCc2nn(C)c(Cl)c2C=O)cc1, the “activity change, negative = growth inhibition” value is reported as inactive: -26.2%.
With N#CCCn1cc(C(=O)Nc2ccc(C(=O)O)cc2)c(-c2cccc(Br)c2)n1 the “activity change, negative = growth inhibition” value was inactive: -2.96%.
In the case of O=C(COC(=O)/C=C/c1ccc(OC(F)F)cc1)NC1CCCC1, the “activity change, negative = growth inhibition” value is reported as inactive: -18.8%.
In the case of Nc1ccc(/C=C/c2ccc3ncccc3c2)cc1, the Potency is reported as inconclusive: 14.1 µM [inhibitor, partial curve] and inconclusive: 23.1 µM [inhibitor, single point].
With Cc1ccc(NC(=O)c2ccco2)cc1 the “activity change, negative = growth inhibition” value was inactive: -4.11%.
With OC[C@@H]1CN(CCN2CCOCC2)C[C@H](n2cnc3c(N4CCOCC4)ncnc32)O1 the “activity change, negative = growth inhibition” value was inactive: -7.06%.
In the case of NS(=O)(=O)c1ccc(NC(=O)CN2CCc3ccccc32)cc1, the Potency is reported as inconclusive: 5.17 µM [inhibitor, single point].
For CC(=O)N1CCN(c2nc3c(C)ccc(Cl)c3s2)CC1, the Potency was inconclusive: 29.1 µM [inhibitor, single point].
In the case of CC(=O)N/C(=C\c1ccc(F)cc1)C(=O)OC(C)C, the activity change, negative = growth inhibition is reported as inconclusive: -30.1% [inhibitor].
